In PubChem BioAssay AID1347120 (National Center for Advancing Translational Sciences (NCATS), 2019):
The whole screen tested about 390,000 compounds, of which about 930 (0.24%) were called active. Inconclusive means that the source gave no clear call. Such entries were picked first, then a sample of the others. Calls follow the shape of the dose curve; as a rule, active = well fitted activation curve with a large enough effect; inconclusive = small, poorly fitted or top-dose-only effect; inactive = no such curve, though single readings can be large or run the other way. A potency beside an inconclusive call is a rough fit, not a confirmed value.

experiment: qHTS for Suppressors of FUS Proteinopathy: Primary screen using FUS-linked yeast assay; also: nearly all actives have a fitted effect of over 55% in size;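 as to growth rescue (activation): plate controls were DMSO vehicle for no effect and reference control for full effect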; conditions: S. cerevisiae FUS-expressing, OD600, 24 h; Potency: growth rescue; growth rescue (activation): at 76.6 µM (top of the series)
In short: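 Compound concentration series was pinned onto galactose-induced FUS-expressing yeast seeded at OD 0.005. Plates sat 24hr at 30C; absorbance at 600 nm gave growth. DMSO served as background control.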
Potency is read from the fitted curve at half-maximal effect; tags tell the direction and shape of the fitted curve.

| SMILES | Potency | growth rescue (activation) |
| --- | --- | --- |
| COc1ccc(-c2nn(C)c3sc(C(=O)N4CCN(c5cccc(Cl)c5)CC4)cc23)cc1OC | inconclusive: 31.6 µM [activator, single point] | – |
| CC1CCc2c(sc(NC(=O)c3cc(-c4ccc(Br)cc4)on3)c2C(N)=O)C1 (stereo not given) | – | inactive: -6.66% |
| CCOC(=O)N1CCN(C(=O)c2ccc3c(c2)N(Cc2ccccc2)CCS3)CC1 | inconclusive: 25.1 µM [activator, partial curve] | – |
| COc1ccc(CCn2c(=N)c(C(=O)NCc3ccco3)cc3c(=O)n4cccc(C)c4nc32)cc1 | inconclusive: 8.91 µM [activator, partial curve, poor fit] | – |
| Clc1cccc(Nc2c3c(nc4ncnn24)CCC3)c1 | – | inactive: 13.5% |
| Cc1ccc(C2C(C#N)=C(N)Oc3n[nH]c(-c4ccccc4)c32)o1 (stereo not given) | inconclusive: 17.8 µM [activator, single point] | – |
| COC(=O)c1c(C)sc(-c2c(-c3ccc4c(c3)OCCO4)[nH]c3c2c(=O)[nH]c(=O)n3C)c1O | inconclusive: 6.31 µM [activator, partial curve] | – |
| CC(C)N1CCCCC(NC(=O)c2ccc(-c3ccccc3)cc2)C1=O (stereo not given) | – | inactive: 18.2% |
| CCC1=C(c2ccc(C)cc2)S(=O)(=O)N=C1N1CCC(C(=O)N2CCCCC2)CC1 | – | inactive: 17.5% |
| CCOC(=O)CSc1ccc2nnc(-c3cccnc3)n2n1 | – | inactive: -11.5% |
| CCOC(=O)[C@]12CCC=C1N(Cc1ccco1)C(=O)[C@H](CC(=O)NCC13CC4CC(CC(C4)C1)C3)C2 | inconclusive: 50.1 µM [activator, single point] | – |
| COC(=O)[C@]1(Cc2ccccc2)N[C@H](c2ccc(SC3CCCCC3)c(OC)c2)[C@@H]2C(=O)N(C)C(=O)[C@@H]21 | inconclusive: 25.1 µM [activator, partial curve] | – |
| COc1ccc(/C=C2\Sc3ccc(C(=O)NCCN4CCCCCC4)cc3N(C)C2=O)cc1 | inconclusive: 31.6 µM [activator, single point] | – |
| Cc1ccc(-c2cc(C(=O)N3CCC(C)CC3)c3ccccc3n2)cc1 | inconclusive: 20 µM [activator, partial curve, poor fit] | – |
| Cc1ccc(S(=O)(=O)NCC2CN(S(=O)(=O)c3ccc(C)cc3)c3ccccc3C(=O)N2c2ccc(F)cc2)cc1 (stereo not given) | active: 17.8 µM | – |
| COc1ccccc1NC(=O)Cn1c(=O)n(Cc2nc(-c3ccccc3)no2)c(=O)c2ccccc21 | – | inactive: -5.16% |
| Cc1ccc(S(=O)(=O)N(C)C[C@H]2OCCCC[C@H](C)Oc3ccc(NC(=O)Nc4cccc5ccccc45)cc3C(=O)N([C@@H](C)CO)C[C@H]2C)cc1 | inconclusive: 25.1 µM [activator, partial curve, poor fit] | – |
| O=C(NNc1nc2cc3c(cc2s1)OCO3)c1ccc(F)cc1 | – | inactive: -9.01% |
| CC(C)(C)n1nnnc1C(c1ccccc1)N1CCN(c2ncc(C(F)(F)F)cc2Cl)CC1 (stereo not given) | inconclusive: 39.8 µM [activator, single point] | – |
| Cc1ccc(NC(=S)NC(=O)C2CCCC2)c(Br)c1 | – | inactive: 7.22% |

| SMILES | Potency | growth rescue (activation) |
| --- | --- | --- |
| COc1ccc(-n2nc(C(=O)NCC(=O)NCC3COc4ccccc4O3)c3ccccc3c2=O)c(OC)c1 (stereo not given) | – | inactive: 40.6% |
| CCOC(=O)c1c(-c2cccc([N+](=O)[O-])c2)csc1N | inconclusive: 50.1 µM [activator, single point] | – |
| O=C(NCCc1csc(-c2ccc(F)cc2)n1)C(=O)Nc1ccc(Cl)cc1 | – | inactive: -28.6% |
| COc1ccc(OC)c(NC(=O)c2nc(SCc3ccc(F)cc3)ncc2Cl)c1 | – | inactive: -8.2% |
| COc1cc(/C=C2\SC(=O)N(CCN)C2=O)ccc1OS(=O)(=O)c1cc(C)ccc1C | inconclusive: 22.4 µM [activator, partial curve, poor fit] | – |
| O=C(/C=C1\NC2(CCCC2)Cc2ccccc21)N1CCOCC1 | – | inactive: 19.7% |
| CCC(=O)N1c2ccc(S(=O)(=O)NCCc3ccccc3)cc2CC1C (stereo not given) | inconclusive: 50.1 µM [activator, single point] | – |
| O=C(/C=C/c1cn(CC(O)CN2CCc3ccccc32)c2ccccc12)c1ccc(Br)cc1 (stereo not given) | inconclusive: 50.1 µM [activator, single point] | – |
| COc1cc(C(=O)N(C)Cc2cccc(OC)c2OC)ccc1OCC(=O)Nc1cccc(C(F)(F)F)c1 | inconclusive: 31.6 µM [activator, single point] | – |
| CCN(C[C@H]1N[C@@](CC)(C(=O)OC)[C@H]2C(=O)N(Cc3ccccc3)C(=O)[C@@H]12)C(=O)c1ccc(C(C)(C)C)cc1 | inconclusive: 31.6 µM [activator, partial curve] | – |
| Cc1nc2ccc(NC(=O)c3ccc4ccccc4n3)cc2s1 | – | inactive: -5.32% |
| COC(=O)[C@]12C[C@H](CC(=O)N3CCCC3)C(=O)N(CCc3ccc(OC)c(OC)c3)C1=C[C@H](C1CCCC1)O[C@@H]2C | – | inactive: 34.7% |
| CCOC(=O)C1CCCN(C(=O)C2CCN(S(=O)(=O)c3c(C)noc3/C=C/c3ccc(C)cc3)CC2)C1 (stereo not given) | inconclusive: 50.1 µM [activator, single point] | – |
| CC(=O)c1ccc(NC(=O)CN2CCN(S(=O)(=O)c3ccc4ccccc4c3)CC2)cc1 | inconclusive: 39.8 µM [activator, single point] | – |
| CCOC(=O)/C(=C(/C)N)C1CC(=O)NC1=O (stereo not given) | – | inactive: -21.2% |
| CN(c1ccc(C(=O)NCc2ccncc2)cc1)S(=O)(=O)c1ccc(Cl)cc1 | inconclusive: 4.47 µM [activator, partial curve, poor fit] | – |
| Cc1cc(NC(=O)CSc2ccc(Cl)cc2)no1 | – | inactive: 24.9% |
| C#CCOCCOCCOCCNc1nc(N2CCN(C(=O)CCCCCCCCCCNC(=O)Cn3cc(C[C@@H](C)O)nn3)CC2)nc(N2CCN(C(=O)CCCCCCCCCCNC(=O)[C@@H](CCC(=O)O)n3cc(CCCCCN)nn3)CC2)n1 | inconclusive: 11.2 µM [activator, partial curve, poor fit] | – |
| S=C(Nc1ccccc1)c1ccccn1 | inconclusive: 11.2 µM [activator, single point] | – |
| COC(=O)C1=CN(Cc2ccc(OC)c(OC)c2)C=C(C(=O)OC)C1c1ccccc1F | inconclusive: 31.6 µM [activator, single point] | – |
